From PubChem BioAssay AID588795 (National Center for Advancing Translational Sciences (NCATS), 2011)
Out of some 390,000 compounds screened, about 1,400 (0.36%) were called active. Inconclusive means that the source gave no clear call. Such entries were picked first, then a sample of the others. Calls come from the whole dose curve; as a rule, active = well fitted inhibition curve with a large enough effect; inconclusive = small, poorly fitted or top-dose-only effect; inactive = no such curve, though single readings can be large or run the other way. A potency beside an inconclusive call is a rough fit, not a confirmed value.

Target: Flap endonuclease 1 (Homo sapiens) (UniProt P39748)
UniProt P39748, sequence (P39748 whole entry, looked up): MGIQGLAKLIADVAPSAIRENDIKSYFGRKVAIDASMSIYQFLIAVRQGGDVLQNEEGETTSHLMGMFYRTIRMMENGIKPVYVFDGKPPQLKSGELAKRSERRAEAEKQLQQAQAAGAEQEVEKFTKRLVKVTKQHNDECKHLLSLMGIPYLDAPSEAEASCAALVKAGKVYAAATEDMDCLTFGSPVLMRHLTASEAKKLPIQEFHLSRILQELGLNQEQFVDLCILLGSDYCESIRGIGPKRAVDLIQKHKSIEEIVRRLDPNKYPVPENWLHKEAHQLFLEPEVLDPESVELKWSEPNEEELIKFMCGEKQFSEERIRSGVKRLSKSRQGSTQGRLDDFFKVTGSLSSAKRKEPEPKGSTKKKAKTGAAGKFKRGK
Experiment: qHTS Assay for the Inhibitors of Human Flap endonuclease 1 (FEN1). Note: nearly all actives have a fitted effect of over 65% in size.
Details: Recombinant FEN1 flap cleavage, fluorescence, 15 min; series mostly up to 114 µM; activity change, negative = inhibition: at the top concentration
Outline: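 FEN1 at 10 nM, compound pretreatment for 15 min (room temperature), 50 nM final substrate to initiate; endpoint reads at 0 and 15 min; DMSO-only plates used as vehicle background.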
% is set by controls: 0 for no effect and ±100 for the full control effect; potency is the fitted concentration of half-maximal effect; tags give direction and shape of the fitted curve.

| Structure (SMILES) | activity change, negative = inhibition | Potency |
| --- | --- | --- |
| Cc1cccc(NC(=O)CN2C(=O)N/C(=C/c3ccc(C)s3)C2=O)c1 | inactive: -1.6% |  |
| CCN1CCN(CCCNC(=O)c2cc3c(=O)oc4ccc(C)cc4c3s2)CC1 |  | inconclusive: 89.1 µM [inhibitor, single point] |
| Oc1c(Br)cc(Br)cc1/C=N/N1CCN(Cc2ccccc2)CC1 | inactive: -18.5% |  |
| C=CCNC(=O)C1CC(=O)N(c2ccc(OCC(=O)Nc3ccc(C)cc3)cc2)C1 (configuration not stated) | inactive: -16.7% |  |
| O=c1[nH]c(N/N=C/c2ccc(O)cc2)nc2ccccc12 |  | inconclusive: 89.1 µM [inhibitor, partial curve, poor fit] |
| COc1ccc(Br)cc1C1CC(=O)N2CN(C)CSC2=C1C#N (configuration not stated) |  | inconclusive: 25.1 µM [inhibitor, single point] |
| O=C1c2cccc3cc([N+](=O)[O-])cc(c23)C(=O)N1CC1CCCO1 (configuration not stated) |  | inconclusive: 89.1 µM [inhibitor, partial curve, poor fit] |
| Cc1ccc(NC(=O)CC2Nc3cccc4cccc(c34)NC2=O)cc1 (configuration not stated) |  | inconclusive: 1.58 µM [inhibitor, full curve] |
| COc1ccccc1-c1nn(CCC(=O)Nc2cccc(C(C)=O)c2)c2nc(C)cc(C)c12 |  | inconclusive: 89.1 µM [inhibitor, single point] |
| CC(O)c1ccc(OCCN(C)c2ccccn2)cc1 (configuration not stated) |  | inconclusive: 89.1 µM [inhibitor, single point] |
| COC(=O)c1ccccc1C(=O)N1CC(O)CO1 (configuration not stated) |  | inconclusive: 79.4 µM [inhibitor, partial curve, poor fit] |
| O=C1C=CC(=O)c2c(O)c(CO)c(CO)c(O)c21 |  | active: 15.8 µM |
| CCOc1ccc2c(c1)c(N=O)c(O)n2C | inactive: -1.45% |  |
| O=C(COC(=O)C12CC3CC(CC(Br)(C3)C1)C2)Nc1c(F)cccc1F |  | inconclusive: 50.1 µM [inhibitor, partial curve, poor fit] |
| CCN(CC)CCNC(=O)c1ccc2c(c1NCCO)C(=O)c1ccccc1C2=O |  | inconclusive: 12.6 µM [inhibitor, full curve, poor fit] |
| CC(N)(C(=O)O)c1ccc(C(=O)O)cc1 (configuration not stated) |  | inconclusive: 8.44 µM [inhibitor, partial curve, poor fit] |
| CCOc1ccc(/C=C(\C(=O)O)c2ccc(S(=O)(=O)N3CCOCC3)s2)cc1OC | inactive: 0.354% |  |
| COc1cc(/C=N/NC(=O)CN2CCCCC2)ccc1OCc1ccc(Br)cc1 |  | inconclusive: 89.1 µM [inhibitor, partial curve, poor fit] |
| CNC(=S)NNC(=O)COc1ccccc1C |  | inconclusive: 0.282 µM [inhibitor, full curve] |
| NCC(=O)c1cccc2ccc[n+]([O-])c12 |  | inconclusive: 39.8 µM [inhibitor, partial curve, poor fit] |
| O=C(COC(=O)/C=C/c1ccco1)Nc1ncc(C(F)(F)F)cc1Cl | inactive: 14.2% |  |
| COc1ccc(CCNc2oc(COc3ccc(Cl)cc3)nc2C#N)cc1OC |  | inconclusive: 50.1 µM [inhibitor, partial curve, poor fit] |
| COc1ccc(Nc2nnc(-c3ccc(C)c(S(N)(=O)=O)c3)c3ccccc23)cc1 |  | inconclusive: 35.5 µM [inhibitor, partial curve, poor fit] |

| Structure (SMILES) | activity change, negative = inhibition | Potency |
| --- | --- | --- |
| Cc1cc(N2CCN(c3ccccn3)CC2)n2cc(-c3ccccc3)nc2n1 |  | inconclusive: 89.1 µM [inhibitor, single point] |
| O=C(Nc1ccccc1C(=O)O)c1ccc(CN2C(=O)c3ccccc3C2=O)cc1 |  | inconclusive: 79.4 µM [inhibitor, partial curve, poor fit] |
| COc1ccccc1CNC(=O)C(=O)NCC(c1ccc2c(c1)OCO2)N1CCOCC1 (configuration not stated) | inactive: 0.574% |  |
| c1cncc(-c2nc3cc4ccccc4cc3[nH]2)c1 |  | inconclusive: 50.1 µM [inhibitor, partial curve] |
| CCOC(=O)c1c(C)[nH]c(C)c1S(=O)(=O)N1CCCC(C(=O)N2CCN(c3cc(C)ccc3C)CC2)C1 (configuration not stated) | inactive: -22.9% |  |
| COc1ccc(OC)c(-c2c3c([nH]c(=S)c2C#N)CCCC3)c1 | inactive: 5.13% |  |
| COc1ccc(C(C[N+](=O)[O-])c2c(C)[nH]n(-c3ccccc3)c2=O)cc1 (configuration not stated) |  | inconclusive: 44.7 µM [inhibitor, partial curve, poor fit] |
| CCOC(=O)N1CCN(C(=O)CN(c2ccc(C)cc2C)S(=O)(=O)c2ccccc2)CC1 | inactive: -4.07% |  |
| CC(=O)NCc1ccc2[nH]c(C)cc2c1 |  | inconclusive: 12.6 µM [inhibitor, partial curve, poor fit] |
| COc1cc(/C=C/c2ccnc3ccccc23)cc(OC)c1OC |  | inconclusive: 89.1 µM [inhibitor, partial curve, poor fit] |
| N#Cc1ccc(CSc2ccc(S(=O)(=O)N3CCCC3)cn2)cc1 |  | inconclusive: 14.1 µM [inhibitor, partial curve, poor fit] |
| COc1cc(OC)cc(-n2c(=O)c3ccccc3n(CC(=O)NCCc3ccc(OC)c(OC)c3)c2=O)c1 | inactive: -2.35% |  |
| Cc1csc2c(=O)sc(NC(=O)c3cccs3)nc12 |  | inconclusive: 89.1 µM [inhibitor, single point] |
| CCOC(=O)C1C(c2ccc(O)c(O)c2)NC(=S)NC1(O)C(F)(F)F (configuration not stated) | inactive: 13.6% |  |
| O=C(O)c1cc(=O)c2c3nc4ccccc4oc-3cc(=O)c2[nH]1 |  | inconclusive: 44.7 µM [inhibitor, partial curve] |
| CC(=O)Nc1ccc(/C=C/c2nc3ccccc3s2)cc1 |  | inconclusive: 89.1 µM [inhibitor, single point] |
| COc1ccc(C2CC(=O)Oc3ccc(C(C)(C)C)cc32)cc1 (configuration not stated) |  | inconclusive: 44.7 µM [inhibitor, partial curve, poor fit] |
| CCN1CCN(c2cc(C)c3cc(NC(=O)/C=C/c4ccc(C)cc4)ccc3n2)CC1 | inactive: 5.38% |  |
| O=C(OC1CCOC1=O)c1cc(-c2ccc(Cl)cc2)nc2ccccc12 (configuration not stated) |  | inconclusive: 79.4 µM [inhibitor, partial curve, poor fit] |
| COc1ccc(OC)c(Nc2nc(-c3sc(C)nc3C)cs2)c1 |  | inconclusive: 39.8 µM [inhibitor, partial curve, poor fit] |
| COc1ccc(/C=C/C(=O)c2ccncc2)c2ccccc12 |  | inconclusive: 44.7 µM [inhibitor, partial curve, poor fit] |
| Cc1nc(Nc2nc(-c3ccccc3)cc(=O)[nH]2)nc2ccccc12 |  | active: 25.1 µM |
| Cc1cc(S(=O)(=O)NC2CCCCC2)c(C)s1 | inactive: 1.71% |  |

| Structure (SMILES) | activity change, negative = inhibition | Potency |
| --- | --- | --- |
| COc1ccccc1N1CCN(C(=O)C2CCN(S(=O)(=O)c3ccc(F)cc3)CC2)CC1 |  | inconclusive: 39.8 µM [inhibitor, single point] |
| CCc1cc(C(=O)OC)c(NC(=O)CSc2nccn2C)s1 | inactive: -0.396% |  |
| OC1(c2ccc(OC(F)F)cc2)CSC(=Nc2cccnc2)N1Cc1ccco1 (configuration not stated) |  | inconclusive: 79.4 µM [inhibitor, single point] |
| O=C(O)c1ccc(Oc2nc3ccccc3s2)cc1 | inactive: -2.17% |  |
| Cc1cc(OCc2cc(C(=O)N(C)Cc3nonc3C)no2)cc(C)c1Cl |  | inconclusive: 25.1 µM [inhibitor, partial curve, poor fit] |
| Cc1ccc(S(=O)(=O)N2CCCc3cc(NS(=O)(=O)c4ccc(C)c(C)c4)ccc32)cc1 | inactive: -11.7% |  |
| CCCN(C(=O)C1CCCN(c2ncnc3c2nc2n3CCCCC2)C1)c1ccc(F)cc1 (configuration not stated) |  | inconclusive: 79.4 µM [inhibitor, partial curve, poor fit] |
| O=C(COC(=O)c1ccc([N+](=O)[O-])o1)NCc1ccc(F)cc1 |  | inconclusive: 31.6 µM [inhibitor, single point] |
| Cc1cccn2c(=O)cc(CSc3nnc(NC(=O)COc4ccccc4)s3)nc12 |  | inconclusive: 31.6 µM [inhibitor, partial curve, poor fit] |
| CCC1=NN2C(=N)/C(=C\c3cccn3-c3ccc(C)cc3C)C(=O)N=C2S1 |  | inconclusive: 89.1 µM [inhibitor, single point] |
| CC(C)NC(=O)COC(=O)CNC(=O)c1cc(Cl)cc([N+](=O)[O-])c1 | inactive: 17.7% |  |
| CNC(=O)c1c(NC(=O)c2nc(SCc3ccc(C)cc3)ncc2Cl)sc2c1CCCC2 | inactive: -13.4% |  |
| CC(C)CC(=O)c1c(O)c(C=O)c(O)c2c1O[C@@]1(C)[C@@H](C2)C[C@H]2C[C@@H]1C2(C)C |  | inconclusive: 89.1 µM [inhibitor, partial curve, poor fit] |
| C/C=C(/C)C(=O)OC(C)(C)[C@@H]1Cc2c(ccc3ccc(=O)oc23)O1 |  | inconclusive: 89.1 µM [inhibitor, partial curve, poor fit] |
| CC(OC(=O)CCN1C(=O)c2cccc([N+](=O)[O-])c2C1=O)C(=O)Nc1cc(Cl)cc(Cl)c1 (configuration not stated) | inactive: 0.902% |  |
| Nc1ccc(C(=O)Nc2ccc(OC(F)(F)C(F)F)c(NC(=O)c3ccc(N)cc3)c2)cc1 | inactive: 6.02% |  |
| COc1cc2c(NC3CCN(C)CC3)nc(N3CCCCC3)nc2cc1OCCOCCN(C)C |  | inconclusive: 28.2 µM [inhibitor, full curve] |
| Cc1ccc(NS(=O)(=O)c2ccc(Cl)c(NC(=S)NC(=O)C3CCCCC3)c2)cc1Cl |  | inconclusive: 56.2 µM [inhibitor, partial curve, poor fit] |
| O=C(O)c1cccc(NC(=S)NC(=O)c2ccc(-c3ccc(Cl)cc3)o2)c1 |  | inconclusive: 50.1 µM [inhibitor, partial curve] |
| O=C(c1ccc2c(c1)OCO2)N1CCN(c2ccccn2)CC1 | inactive: -7.88% |  |
| CCOC(=O)C1=C(C)N(c2ccc(OC)cc2)C(=O)/C1=C\c1ccc(O)c(OCC)c1 |  | inconclusive: 89.1 µM [inhibitor, single point] |
